Values joined by “and” are separate entries in the source; they are usually repeats but may differ in a detail not shown here. Identical values can stand only once. Counter-ions that a name gives are not always drawn. Hit rate of the full screen: of about 5,800 compounds, about 620 (11%) showed activity.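 The calls were made as follows: active = score above a cut-off or among the top three wells of a plate; in these data no inactive exceeds 0.85.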 This is a selection; strong and weak results do not stand in their true shares.
System: primary human hepatic stellate cells (donor 1)
Experiment: scaled lipid accumulation score (0 = DMSO-like, 1 = nortriptyline-like); higher = stronger HSC inactivation (lipid re-accumulation), active = hit call of the paper
Conditions: 48 h
[1] = library stock concentration: 10 mM
[2] = library stock concentration: 3.33 mM
[3] = library stock concentration: 1 mM
[4] = library stock concentration: 80 uM
[5] = library stock concentration: 400 uM
[6] = library stock concentration: 2 mM
[7] = library stock concentration: 4.7 mM

Nc1nc2c(ncn2[C@@H]2O[C@H](CO)[C@@H](O)[C@@H]2O)c(=O)[nH]1 [Ara-G hydrate]
scaled lipid accumulation score [1]: inactive: ≤ 0

NC1=NCC2c3ccccc3Cc3ccccc3N12 (stereo not drawn) [Epinastine hydrochloride]
scaled lipid accumulation score [1]: inactive: 0.592

NC1=NCC2c3ccccc3Cc3ccccc3N12 (stereo not drawn) [Epinastine HCl]
scaled lipid accumulation score [2]: inactive: ≤ 0
scaled lipid accumulation score [1]: inactive: 0.038

CCCCC[C@H](O)/C=C/[C@H]1OC(O)C[C@H](O)[C@@H]1C/C=C\CCCC(=O)O (stereo partly drawn) [Thromboxane B2]
scaled lipid accumulation score [3]: inactive: ≤ 0

NC(=O)N1c2ccccc2CC(=O)c2ccccc21 [Oxcarbazepine]
scaled lipid accumulation score [2]: inactive: ≤ 0
scaled lipid accumulation score (library stock concentration: 7.9 mM): inactive: ≤ 0
scaled lipid accumulation score [1]: inactive: ≤ 0 and inactive: ≤ -0.027

NC(=O)N1c2ccccc2CC(=O)c2ccccc21 [Trileptal]
scaled lipid accumulation score [1]: inactive: ≤ 0

Cc1nc2ccc(NC(=O)Nc3ccnc4cccnc34)cc2o1
scaled lipid accumulation score [1]: inactive: ≤ -0.006

Oc1nc(-c2ccc(C(F)(F)F)cc2)nc2c1CSCC2
scaled lipid accumulation score [3]: inactive: ≤ 0
scaled lipid accumulation score [2]: inactive: ≤ 0
scaled lipid accumulation score [1]: inactive: ≤ 0 and inactive: 0.004

O=C(c1ccc(Nc2nccc(-c3cc4ccccc4s3)n2)cc1)N1CCC(N2CCCC2)CC1 [IKK-16 (IKK Inhibitor VII)]
scaled lipid accumulation score [2]: active: 1.04

CC(C)Cn1cnc2c(N)nc3ccccc3c21 [Imiquimod]
scaled lipid accumulation score (library stock concentration: 8.3 mM): inactive: ≤ 0

O=C(O)C=Cc1cc(Br)c(Br)c(Br)c1Br [Casein Kinase II Inhibitor III, TBCA]
scaled lipid accumulation score [2]: inactive: ≤ 0

CC(=O)OCC(=O)[C@@]1(O)[C@H](OC(C)=O)C[C@H]2[C@@H]3CCC4=CC(=O)C=C[C@]4(C)[C@@]3(F)[C@@H](O)C[C@@]21C [Triamcinolone diacetate]
scaled lipid accumulation score [1]: inactive: ≤ 0

O=C1Nc2ccc(I)cc2/C1=C/c1cc(Br)c(O)c(Br)c1
scaled lipid accumulation score [4]: inactive: ≤ 0
scaled lipid accumulation score [5]: inactive: ≤ 0
scaled lipid accumulation score [6]: inactive: 0.042
scaled lipid accumulation score (library stock concentration: 9.6 mM): inactive: 0.046
scaled lipid accumulation score [1]: inactive: 0.225 and inactive: ≤ 0 and inactive: ≤ -0.006

O=C1N=C(O)NC1(c1ccccc1)c1ccccc1 [Phenytoin sodium]
scaled lipid accumulation score [2]: inactive: ≤ 0
scaled lipid accumulation score (library stock concentration: 7.3 mM): inactive: ≤ -0.001
scaled lipid accumulation score [1]: inactive: ≤ 0 and inactive: 0.012

O=c1onc2cnc3ccccc3n12
scaled lipid accumulation score [1]: active: 1.01

CN(C)CCC=C1c2ccccc2C=Cc2ccccc21.Cl [Cyclobenzaprine HCl]
scaled lipid accumulation score [2]: active: 0.507

COc1cc(NS(=O)(=O)c2ccc(N)cc2)nc(OC)n1 [Sulfadimethoxine]
scaled lipid accumulation score: inactive: 0.008
scaled lipid accumulation score (library stock concentration: 6.4 mM): inactive: ≤ 0
scaled lipid accumulation score [1]: inactive: ≤ 0

COc1cc(NS(=O)(=O)c2ccc(N)cc2)nc(OC)n1 [Sulphadimethoxine]
scaled lipid accumulation score [2]: inactive: ≤ 0
scaled lipid accumulation score [1]: inactive: ≤ 0

CC[N+](CC)(CC(=O)Nc1c(C)cccc1C)Cc1ccccc1 [Denatonium benzoate]
scaled lipid accumulation score: inactive: ≤ 0
scaled lipid accumulation score (library stock concentration: 4.5 mM): inactive: ≤ 0

CC1(C)O[C@@H]2[C@@H](CO[C@@]3(COS(N)(=O)=O)OC(C)(C)O[C@@H]23)O1
scaled lipid accumulation score [1]: inactive: ≤ 0

CC1(C)O[C@@H]2[C@@H](CO[C@@]3(COS(N)(=O)=O)OC(C)(C)O[C@@H]23)O1 [Topiramate]
scaled lipid accumulation score [2]: inactive: 0.132
scaled lipid accumulation score (library stock concentration: 5.9 mM): inactive: ≤ 0
scaled lipid accumulation score [1]: inactive: ≤ 0 and inactive: ≤ -0.027 and inactive: 0.005

COc1cc2ccc(=O)oc2cc1O [Scopoletin]
scaled lipid accumulation score: inactive: ≤ 0
scaled lipid accumulation score [1]: inactive: ≤ 0

NCCC(=O)NCCc1c[nH]cn1 [Carcinine]
scaled lipid accumulation score: inactive: 0.074

CN(C)c1cc(NC(=O)CNC(C)(C)C)c(O)c2c1C[C@H]1C[C@H]3[C@H](N(C)C)C(O)=C(C(N)=O)C(=O)[C@@]3(O)C(O)=C1C2=O
scaled lipid accumulation score [1]: inactive: ≤ 0

CCNc1nc(Nc2cc(F)c(C(=O)N3CCOCC3)cc2OC)ncc1C(F)(F)F
scaled lipid accumulation score [4]: inactive: ≤ -0.001
scaled lipid accumulation score [5]: inactive: ≤ -0.001
scaled lipid accumulation score [6]: inactive: ≤ -0.001
scaled lipid accumulation score [2]: inactive: ≤ -0.009
scaled lipid accumulation score [1]: inactive: ≤ 0 and inactive: ≤ -0.001

Cc1cccc(Nc2ccncc2S(=O)(=O)NC(=O)NC(C)C)c1
scaled lipid accumulation score (library stock concentration: 9.9 mM): inactive: ≤ 0

Cc1cccc(Nc2ccncc2S(=O)(=O)NC(=O)NC(C)C)c1 [Torsemide]
scaled lipid accumulation score: inactive: ≤ 0
scaled lipid accumulation score [1]: inactive: ≤ -0.027

COc1cc2c(cc1OC)-c1c/c(=N\c3c(C)cc(C)cc3C)n(C)c(=O)n1CC2 [Trequinsin]
scaled lipid accumulation score (library stock concentration: 4.9 mM): inactive: 0.164
scaled lipid accumulation score (library stock concentration: 12.3 mM): inactive: 0.244

COc1cc2c(cc1OC)-c1c/c(=N\c3c(C)cc(C)cc3C)n(C)c(=O)n1CC2 [Trequinsin hydrochloride]
scaled lipid accumulation score [1]: inactive: 0.494 and inactive: 0.174

O=C(O)CCCC[C@@H]1CCSS1 [Thioctic acid]
scaled lipid accumulation score [1]: inactive: ≤ -0.027

COc1ccc(-c2nc3cc(F)ccc3s2)cc1OC
scaled lipid accumulation score [3]: inactive: ≤ 0

CC(C)CCOc1ccc(NC(=S)Nc2ccc(OCCC(C)C)cc2)cc1 [Thiocarlide]
scaled lipid accumulation score [3]: inactive: ≤ 0

Cc1ccc(Cl)cc1N(CC(=O)Nc1c(F)cccc1F)S(C)(=O)=O
scaled lipid accumulation score [2]: inactive: ≤ -0.007
scaled lipid accumulation score [1]: inactive: 0.137

CCCCCCCCCCCCCC(=O)OCC [Myristic Acid ethyl ester]
scaled lipid accumulation score [3]: inactive: 0.028

CNCCCN1c2ccccc2CCc2ccccc21.Cl
scaled lipid accumulation score [1]: active: 0.969

O=C1c2ccccc2-c2n[nH]c3cccc1c23 [JNK Inhibitor II]
scaled lipid accumulation score [2]: inactive: ≤ 0

O=C1c2ccccc2-c2n[nH]c3cccc1c23
scaled lipid accumulation score [4]: inactive: 0.129
scaled lipid accumulation score [5]: inactive: 0.086
scaled lipid accumulation score [6]: inactive: 0.004
scaled lipid accumulation score [2]: inactive: ≤ 0
scaled lipid accumulation score [1]: inactive: ≤ 0 and inactive: ≤ -0.07 and inactive: ≤ -0.009

O=C(c1ccc(OCCN2CCCCC2)cc1)c1c(-c2ccc(O)cc2)sc2cc(O)ccc12 [Raloxifene HCl]
scaled lipid accumulation score [2]: inactive: ≤ 0
scaled lipid accumulation score [1]: inactive: 0.575

O=C(c1ccc(OCCN2CCCCC2)cc1)c1c(-c2ccc(O)cc2)sc2cc(O)ccc12
scaled lipid accumulation score [1]: inactive: 0.798

O=C(c1ccc(OCCN2CCCCC2)cc1)c1c(-c2ccc(O)cc2)sc2cc(O)ccc12 [Raloxifene hydrochloride]
scaled lipid accumulation score: inactive: 0.032
scaled lipid accumulation score [1]: inactive: 0.661 and inactive: 0.376

CC(C)[C@H](CO)Nc1nc(Nc2cc(N)cc(Cl)c2)c2ncn(C(C)C)c2n1 [Aminopurvalanol A]
scaled lipid accumulation score [2]: inactive: 0.02
scaled lipid accumulation score [1]: inactive: 0.034

CNC(=O)c1ccc(N2C(=S)N(c3cnc(C#N)c(C(F)(F)F)c3)C(=O)C23CCC3)cc1F
scaled lipid accumulation score [2]: inactive: ≤ 0
scaled lipid accumulation score [1]: inactive: ≤ 0

CCO/C(O)=C1\C(COCCN)=NC(C)=C(C(=O)OC)C1c1ccccc1Cl (stereo not drawn)
scaled lipid accumulation score [1]: active: 1.38

CCOc1nc(NC(=O)Cc2cc(OC)ccc2OC)cc(N)c1C#N [JNK Inhibitor VIII]
scaled lipid accumulation score [2]: inactive: ≤ 0

CCCCC[C@H](O)/C=C/[C@@H]1[C@@H](C/C=C\CCCC(=O)O)[C@H](O)C[C@H]1O [Prostaglandin F2.beta.]
scaled lipid accumulation score [3]: inactive: ≤ 0

CCCCC[C@H](O)/C=C/[C@@H]1[C@@H](C/C=C\CCCC(=O)O)[C@H](O)C[C@H]1O [Prostaglandin F2.beta. (tromethamine salt)]
scaled lipid accumulation score [3]: inactive: ≤ 0

CCCCC[C@H](O)/C=C/[C@@H]1[C@@H](C/C=C\CCCC(=O)O)[C@H](O)C[C@H]1O [9b,11a-Prostaglandin F2]
scaled lipid accumulation score [3]: inactive: ≤ -0.021

CC(C)(NS(=O)(=O)c1ccc(Oc2ccc(F)cc2)cc1)C(=O)NO
scaled lipid accumulation score [1]: inactive: 0.223

Cc1ccc(NC(=O)Nc2cc(C(F)(F)F)ccc2F)cc1Nc1ccc2c(c1)NC(=O)/C2=C\c1ccc[nH]1
scaled lipid accumulation score [4]: inactive: 0.038
scaled lipid accumulation score [5]: inactive: 0.353

S=C=Nc1cccc(NC(=S)NCCCCNC(=S)Nc2cccc(N=C=S)c2)c1
scaled lipid accumulation score [2]: inactive: 0.004
scaled lipid accumulation score [1]: inactive: 0.023

CCOc1cc(N2CCC(O)CC2)ccc1Nc1ncc2c(n1)N(C)c1ccccc1C(=O)N2C
scaled lipid accumulation score [4]: inactive: ≤ -0.009
scaled lipid accumulation score [5]: inactive: 0.026
scaled lipid accumulation score [6]: inactive: ≤ -0.009
scaled lipid accumulation score [2]: inactive: ≤ -0.009
scaled lipid accumulation score [1]: inactive: 0.473 and inactive: 0.012

O=C(CCCCCCCCCCCCC1CCCC1)Nc1ccc(S(=O)(=O)c2ccc(NC(=O)CCCCCCCCCCCCC3CCCC3)cc2)cc1 [Chaulmosulfone]
scaled lipid accumulation score [1]: inactive: ≤ -0.027

CN1CCN(c2ccc(OC(F)(F)F)c(Nc3ncc4c(n3)-c3c(c(C(N)=O)nn3CCO)CC4)c2)CC1
scaled lipid accumulation score [1]: active: 0.879

NS(=O)(=O)c1cc2c(cc1C(F)(F)F)NC(Cc1ccccc1)NS2(=O)=O (stereo not drawn) [Bendroflumethiazide]
scaled lipid accumulation score: inactive: ≤ 0
scaled lipid accumulation score [7]: inactive: ≤ 0

NS(=O)(=O)c1cc2c(cc1C(F)(F)F)NC(Cc1ccccc1)NS2(=O)=O (stereo not drawn) [Bendrofumethiazide]
scaled lipid accumulation score [1]: inactive: ≤ -0.027

NS(=O)(=O)c1cc2c(cc1C(F)(F)F)NC(Cc1ccccc1)NS2(=O)=O (stereo not drawn) [Bendrofluazide]
scaled lipid accumulation score [1]: inactive: ≤ 0

Cc1nc2c(OCc3ccccc3)cccn2c1CC#N
scaled lipid accumulation score [1]: inactive: 0.243 and inactive: ≤ 0

CC1(C)S[C@@H]2[C@H](N3C(=O)[C@@H](c4ccccc4)NC3(C)C)C(=O)N2[C@H]1C(=O)O [Hetacillin potassium]
scaled lipid accumulation score [7]: inactive: 0.007
scaled lipid accumulation score [1]: inactive: ≤ 0

CCOC(=O)C1=C(C)NC(C)=C(C(=O)OC)C1c1cccc([N+](=O)[O-])c1 (stereo not drawn) [Nitrendipine]
scaled lipid accumulation score: inactive: ≤ 0
scaled lipid accumulation score [2]: inactive: ≤ 0
scaled lipid accumulation score [1]: inactive: ≤ 0 and inactive: 0.348 and inactive: 0.07

CCOC(=O)C1=C(C)NC(C)=C(C(=O)OC)C1c1cccc([N+](=O)[O-])c1 (stereo not drawn)
scaled lipid accumulation score [1]: inactive: 0.196
